Experimental findings from paper PMC4336329 (PLoS ONE, 2015) are described below.

The structures appear in SMILES notation. Hit rate of the full screen: of about 310,000 compounds, about 14,000 (4.5%) showed an effect of 50% or more. The effect is printed as a negative number. The list shows a part of the results.
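Note: peak tail current of the secondary pulse compared with the same well before compound.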

Sequence of human ether-à-go-go-related gene (hERG) potassium channel (Q12809 whole entry, looked up): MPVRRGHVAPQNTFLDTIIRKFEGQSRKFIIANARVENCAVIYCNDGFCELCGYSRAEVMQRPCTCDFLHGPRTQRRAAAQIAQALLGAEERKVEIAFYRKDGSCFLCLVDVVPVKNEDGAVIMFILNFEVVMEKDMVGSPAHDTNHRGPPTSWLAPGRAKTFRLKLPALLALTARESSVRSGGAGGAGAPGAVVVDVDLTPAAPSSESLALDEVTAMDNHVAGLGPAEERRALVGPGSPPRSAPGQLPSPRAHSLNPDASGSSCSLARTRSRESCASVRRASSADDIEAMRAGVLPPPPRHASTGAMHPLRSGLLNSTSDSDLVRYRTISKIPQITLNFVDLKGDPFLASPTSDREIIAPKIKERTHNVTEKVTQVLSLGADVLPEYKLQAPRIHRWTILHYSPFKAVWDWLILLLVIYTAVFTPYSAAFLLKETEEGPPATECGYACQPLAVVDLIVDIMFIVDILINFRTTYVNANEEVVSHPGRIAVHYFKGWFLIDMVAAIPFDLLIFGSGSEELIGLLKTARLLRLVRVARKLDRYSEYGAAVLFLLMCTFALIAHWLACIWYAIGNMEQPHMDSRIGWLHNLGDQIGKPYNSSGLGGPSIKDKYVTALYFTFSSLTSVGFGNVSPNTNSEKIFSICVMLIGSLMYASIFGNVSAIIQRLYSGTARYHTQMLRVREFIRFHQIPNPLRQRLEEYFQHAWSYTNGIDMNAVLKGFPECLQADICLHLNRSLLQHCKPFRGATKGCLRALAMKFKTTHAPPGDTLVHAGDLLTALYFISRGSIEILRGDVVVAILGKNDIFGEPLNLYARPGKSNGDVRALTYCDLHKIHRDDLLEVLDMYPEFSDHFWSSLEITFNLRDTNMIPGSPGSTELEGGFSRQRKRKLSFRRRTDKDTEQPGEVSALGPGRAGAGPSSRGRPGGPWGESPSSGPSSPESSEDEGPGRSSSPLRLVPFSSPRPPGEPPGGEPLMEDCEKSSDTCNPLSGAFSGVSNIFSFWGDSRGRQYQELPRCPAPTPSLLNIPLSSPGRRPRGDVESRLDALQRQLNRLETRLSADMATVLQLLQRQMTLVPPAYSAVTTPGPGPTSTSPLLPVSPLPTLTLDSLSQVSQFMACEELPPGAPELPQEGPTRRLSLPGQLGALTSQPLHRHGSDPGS

The experiment concerns the target human ether-à-go-go-related gene (hERG) potassium channel (human, UniProt Q12809). Description: primary screen, population patch clamp on CHO cells stably expressing hERG.
As for `O=C(Nc1cccc(NC(=O)c2cccs2)c1)c1ccc(Br)o1`, the “hERG current change (%, negative = inhibition) at 10uM” value was -44%.
The value for `CCN(Cc1ccccc1)C(=O)c1cc(S(=O)(=O)N2CCOCC2)ccc1N1CCCC1` was -39.3%; that for `CCCCC1C2=C(CCCC2=O)OC2=C1C(=O)CCC2` was -14.9%; that for `Cc1cc2c(C)ccc(C)c2nc1SCC(=O)c1cccs1` was 26%.
The value for `CCN(Cc1ccncc1)C(=O)C1CCN(S(=O)(=O)c2cccs2)CC1` was 5.09%; that for `Cc1ccc(-n2nc(C)c(/C=N/NC(=O)c3cccs3)c2Cl)cc1` was 5.12%; that for `CCOc1ccc(C(=O)Nc2cc(C)on2)cc1` was -2.55%.
The value for `CCC(C)c1ccc(NC(=O)Nc2cnccn2)cc1` (centres unmarked) was 13.4%.
For `CC(OC(=O)c1ccc(F)c(S(=O)(=O)N2CCOCC2)c1)C(=O)NCC1CCCCC1` (centres unmarked), the “hERG current change (%, negative = inhibition) at 10uM” value is on record as 1.84%.
The result for `Cc1ccc(C(=O)N2CCC3(CC2)NCCc2[nH]cnc23)cc1C` reads 8.58%; that for `COc1ccc2c(OC)c3ccoc3nc2c1OC`, 8.18%; that for `CCCCCCCC(=O)N1c2ccccc2NC(=O)C1CC(=O)Nc1ccc(C(=O)O)cc1` (centres unmarked), 13.6%.
In the case of `COc1ccc(NS(=O)(=O)c2cc(OC)ccc2NC(=O)c2cc(C)oc2C)cc1`, the “hERG current change (%, negative = inhibition) at 10uM” value was -3.45%.
On to `C=CCNC(=O)NC(=O)COC(=O)CC(NC(N)=O)c1ccc(Cl)cc1` (centres unmarked), for which the “hERG current change (%, negative = inhibition) at 10uM” value was 7.1%.
The result for `COc1ccc(CCN(C)CC(=O)Nc2cc(C)nc3ccccc23)cc1OC.O=C(O)C(=O)O` reads 5.34%; that for `Cc1ccc2cc(CN(CCN3CCCC3)C(=O)Nc3ccccc3)c(=O)[nH]c2c1C`, -57.8%; that for `Cc1ccc(NC(=O)CCNC(=O)c2ccc([N+](=O)[O-])cc2)cc1S(=O)(=O)N(C)C`, -66.9%.
The result for `Cc1ccc(C(=O)N/N=C/c2cc(Br)ccc2O)cn1` reads -0.323%; that for `CCN1CCN(c2nc(-c3cccnc3)nc3ccccc23)CC1.Cl`, -55.4%; that for `COc1ccc(Nc2nc(N)c([N+](=O)[O-])c(NCc3ccccc3)n2)cc1`, 0.168%.
Consider `COc1ccccc1CCNS(=O)(=O)c1cn(C)nc1C`, for which the “hERG current change (%, negative = inhibition) at 10uM” value turned out to be 1.14%.
The value for `Cc1ccc(C(=O)NCC(=O)O)cc1S(=O)(=O)N1CCCCC1` was 18.5%; that for `O=S(=O)(c1ccc(Cl)cc1)N1CN(CC2CCCO2)c2nc3ccccc3nc21` (centres unmarked) was -9.72%; that for `Clc1ccc(-c2cc(-c3ccccc3)on2)cc1` was 5.36%.
The result for `COc1ccc(/C(O)=C2/C(=O)C(=O)N(CCN3CCNCC3)C2c2cccc([N+](=O)[O-])c2)cc1` (centres unmarked) reads 25.3%; that for `CC1(C)CC(NC(=O)c2sc3cc(Cl)ccc3c2Cl)CC(C)(C)N1`, -15.3%.
On to `Cc1ccc(-n2[nH]c(C)c(C=Nc3ccc(S(=O)(=O)N4CCOCC4)cc3)c2=O)c(C)c1`, for which the “hERG current change (%, negative = inhibition) at 10uM” value is -7.6%.
The value for `O=C(Nc1cc(F)ccc1F)C1CCCN1S(=O)(=O)c1cccc2nsnc12` (centres unmarked) was -24.3%.
The result for `COc1ccc(N=Cc2ccc(CNS(=O)(=O)c3ccc(Cl)cc3)o2)cc1` reads 12.1%; that for `C[n+]1cn(CC(O)COCc2ccccc2)c2ccccc21.[I-]` (centres unmarked), 24%; that for `CC(C)CN(CC(C)C)c1nnc(N)s1`, 4.06%.
The result for `CNc1nc(N/N=C/c2ccc([N+](=O)[O-])cc2)nc(Nc2ccccc2)n1.Cl` reads -16.7%; that for `COc1ccc(C2CN(C)CC2C(=O)c2ccc(F)cc2)cc1Cl` (centres unmarked), -78.7%.
With `CC1CCN(C(=O)c2ccc(N3C(=O)C4CCC(C)CC4C3=O)cc2)CC1` (centres unmarked), the “hERG current change (%, negative = inhibition) at 10uM” value came out at 17%.
The value for `Cc1ccn2cc(CCNC(=O)Cc3cccs3)nc2c1` was -15.5%; that for `O=C(CCN1C(=O)C2C3CC(C(Br)C3Br)C2C1=O)OCC(=O)c1ccccc1` (centres unmarked) was -18.2%; that for `Cc1c(CC(=O)NCCCCCC(=O)O)c(=O)oc2c(C)c3oc4c(c3cc12)CCCC4` was 20.4%.
The value for `COc1ccccc1-c1cnn2c(NC3CCCC3)cc(C)nc12` was 12.8%; that for `O=C(Nc1cc(S(=O)(=O)N2CCOCC2)ccc1N1CCOCC1)c1ccccc1F` was -9.18%.
Turning to `COc1ccc(Cl)cc1NC(=O)CN(C)C(=O)Cn1cnc2c1c(=O)n(C)c(=O)n2C`, the “hERG current change (%, negative = inhibition) at 10uM” value was -11.4%.
The result for `Cc1c(Cl)cnn1CC(=O)NC1C(=O)N2C(C(=O)O)=C(CSc3nnnn3C)CSC12` (centres unmarked) reads 11.9%.
The result for `Cc1c(NC(=O)CN2CCCC(C)C2)ccc2nsnc12` (centres unmarked) reads 33.6%.
`CCN(CC)CCN(C(=O)C1=COCCO1)c1nc2cc(C)cc(C)c2s1.Cl`: the “hERG current change (%, negative = inhibition) at 10uM” value is on record as -69%.
The value for `Cc1cc(S(=O)(=O)N2CCN(c3ccccc3C)CC2)ccc1F` was 1.78%; that for `CN(C)C=O.O=C(Nc1cccc(S(=O)(=O)NC2=NCCCCC2)c1)c1cc(-c2ccco2)nc2ccccc12` was 19.7%.
The value for `CC(C)C(C(=O)Nc1ccccc1F)N1C(=O)c2ccccc2C1=O` (centres unmarked) was -3.78%; that for `CCOC(=O)c1c(S(=O)(=O)NCc2ccc(OC)cc2)c(C)n(C)c1C` was -15.1%.
`Cn1c(=O)n(CC#N)c2ccccc21`: the “hERG current change (%, negative = inhibition) at 10uM” value was 15.7%.
The result for `C/C(=N\Nc1ncc(Cl)cc1Cl)c1ccc(C#N)cc1` reads -4.88%.
Take `CCN=C1NN=C(c2cc(C)n(Cc3ccco3)c2C)CS1`: the “hERG current change (%, negative = inhibition) at 10uM” value amounted to 18.9%.
As for `COc1ccccc1NCCC(=O)OCC(=O)NC1CCCC(C)C1C` (centres unmarked), the “hERG current change (%, negative = inhibition) at 10uM” value was found to be 9.37%.
The result for `COc1cc(C2/C(=C(\O)c3cc(C)ccc3C)C(=O)C(=O)N2CCN(C)C)ccc1O` (centres unmarked) reads 7.57%; that for `N#CC1=C(N)NC(SCC(=O)Nc2ccccc2)=C(C#N)C12CCCC2`, -5.85%; that for `O=C(O)c1ccc(CNC(=O)c2ccccc2NC(=O)c2ccc([N+](=O)[O-])cc2)cc1`, 16.9%.
The result for `CCc1ccccc1NC(=O)C1CC(c2ccc(F)cc2)=NO1` (centres unmarked) reads 4.94%.
In the case of `CN(C)Cc1c(O)ccc2ccccc12`, the “hERG current change (%, negative = inhibition) at 10uM” value is 0.0591%.
The result for `COc1ccc2nc(NC(=O)NC3CCCCC3)sc2c1` reads 15.1%; that for `Cn1c(SCC(=O)NC2CCCC2)nnc1-c1ccccn1`, 12.2%; that for `CC(NC(=O)C(c1ccccc1)c1ccccc1)C(=O)N1CCCCC1` (centres unmarked), -10.6%.
The result for `CCOC(=O)NC(c1ccccc1)C1CCCCC1=O` (centres unmarked) reads 3.81%.
As to `Cc1nc2ccccc2nc1N/N=C/c1ccc(O)cc1O`, the “hERG current change (%, negative = inhibition) at 10uM” value is given as -6.44%.
The result for `COC(=O)c1cc(C(C)=O)n2ccccc12` reads -11.6%; that for `CC(C)CCn1c(SCC(=O)NC2CC2)nc2cc(Cl)ccc2c1=O`, 14%; that for `COC(=O)c1ccc2c(c1)N(C)S(=O)(=O)c1cnc(SCC(=O)C(C)(C)C)nc1-2`, 14.7%.
With `COc1ccc(-n2nnnc2SCC(=O)Nc2ccccc2F)cc1`, the “hERG current change (%, negative = inhibition) at 10uM” value is listed as 12.3%.
With `CCn1c(SC(C)C(=O)O)nc2sc3c(c2c1=O)CCC3` (centres unmarked), the “hERG current change (%, negative = inhibition) at 10uM” value was 22.2%.
The value for `Cc1ccc(C(=O)Nc2cccc(C(=O)O)c2)cc1` was 14.4%; that for `Cc1ccc2c(c1)cc1c(=O)n(CC(=O)N(C)c3ccccc3)nc(C)n12` was 0.0802%; that for `Cc1[nH]c2ccccc2c1C(=O)CSC(=S)N(C)C1CCCCC1` was -3.52%.
The value for `O=C(Nc1c[nH]c(=O)[nH]c1=O)c1cccc([N+](=O)[O-])c1` was 14.7%; that for `O/N=C/c1cn(-c2ccc(Cl)cc2)nn1` was -5.87%; that for `CN(C(=O)COc1ncnc2sccc12)C1CCCCC1` was -0.342%.
The value for `COc1cccc(NC(=O)c2cccnn2)c1` was 19.7%.
`Cc1cc(Cl)c2ccccc2n1.O`: the “hERG current change (%, negative = inhibition) at 10uM” value stood at 0.0587%.
The value for `CCOC(=O)Cc1csc(NC(=O)COc2cc(C)cc(C)c2)n1` was 5.84%; that for `CC(C)COc1nc2ccccc2nc1C(C#N)C(=O)NC1CCCCC1` (centres unmarked) was 10.1%.
The value for `Cc1cc(C)cc(NC(=O)c2ccc(NC(=O)C3C4CC5OC(=O)C3C5C4)cc2)c1` (centres unmarked) was 9.84%; that for `COc1cc(C(=O)O)nc2ccccc12` was 11.5%.
Take `COc1ccc(CCN2CC(C(=O)N(C)C3CCOCC3)CCC2=O)cc1` (centres unmarked): the “hERG current change (%, negative = inhibition) at 10uM” value is 8.23%.
For the compound `Oc1c(N=NC(=S)Nc2ccccc2F)c2ccccc2n1Cc1ccccc1Cl`, the “hERG current change (%, negative = inhibition) at 10uM” value is 19.4%.
The result for `COc1ccc(Cc2nnc(NC(=O)c3ccc(C)cc3)s2)cc1OC` reads 14.2%; that for `CN(Cc1ccc2nsnc2c1)Cc1nc(Cc2cccc(F)c2)no1`, -18.8%.
The result for `CN1C[C@@H]2C(c3ccccc3)C3(c4cccnc4)CC2(C3)[C@H]1c1ccccc1` (some centres unmarked) reads -46.5%; that for `Cc1sc2nc(CSc3ccc([N+](=O)[O-])cc3)[nH]c(=O)c2c1C`, 6.57%; that for `COc1ccc(-c2csc3ncn(-c4ccc(C)cc4)c(=O)c23)cc1OC`, 37.8%.
As to `CC(C)c1ccc(N(CC(=O)NCCSCc2ccco2)S(C)(=O)=O)cc1`, the “hERG current change (%, negative = inhibition) at 10uM” value is listed as -12.1%.
The result for `O=[N+]([O-])c1ccc(Cl)c(S(=O)(=O)NCC2CCCO2)c1` (centres unmarked) reads -4.06%.
The value for `CNS(=O)(=O)c1cc(S(=O)(=O)NC)c2cccc3c2c1NC3=O` was 17.1%; that for `CCCCn1c(N)c(N(CCOC)C(=O)c2cc3c(s2)CCCCC3)c(=O)[nH]c1=O` was 10.2%.
